Experimental data published in the supplement of paper PMC11876631.
Positions count from the first letter of the chain named. Names may count otherwise. ± gives the standard deviation of the averaged measurements. Laboratory Escherichia coli strains with one amino-acid change in an essential protein, pooled on minimal glucose agar with carbenicillin or gentamicin at twice the control MIC (plus kanamycin and chloramphenicol for the plasmids), 48 h. Fold change of barcode share against drug-free plates; higher = less susceptible. Active = above 20 in both replicates (the paper's putatively resistant). '<' = one read or none on drug, '>' = one read or none on a drug-free plate. Shares are relative, so most strains fall below 1 when a few take over. Listed are strains with at least 15 reads on both drug-free plates, and hits; most hits rest on fewer reference reads. Replicate rank correlation about 0.5. Edits are read from barcodes.

B1: hisI M19D (protein)
chain: MLTEQQRRELDWEKTDGLDPVIVQHAVSGEVLMLGYMNPEALDKTLESGKVTFFSRTKQRLWTKGETSGNFLNVVSIAPDCDNDTLLVLANPIGPTCHKGTSSCFGDTAHQWLFLYQLEQLLAERKSADPETSYTAKLYASGTKRIAQKVGEEGVETALAATVHDRFELTNEASDLMYHLLVLLQDQGLDLTTVIENLRKRHQ
B2: hisI W112Q (protein)
chain: B1 chain with D19M, W112Q
B3: hisI V23A (protein)
chain: B1 chain with D19M, V23A
B4: hisI F54A (protein)
chain: B1 chain with D19M, F54A
B5: hisI V23W (protein)
chain: B1 chain with D19M, V23W
B6: hisI V23Q (protein)
chain: B1 chain with D19M, V23Q
B7: hisI V23D (protein)
chain: B1 chain with D19M, V23D
B8: hisI F54D (protein)
chain: B1 chain with D19M, F54D
B9: hisI F54Q (protein)
chain: B1 chain with D19M, F54Q
B10: hisI I22P (protein)
chain: B1 chain with D19M, I22P
B11: hisI I22A (protein)
chain: B1 chain with D19M, I22A
B12: hisI F54W (protein)
chain: B1 chain with D19M, F54W
B13: hisI V21Q (protein)
chain: B1 chain with D19M, V21Q
B14: hisI I22Q (protein)
chain: B1 chain with D19M, I22Q
B15: hisI V21A (protein)
chain: B1 chain with D19M, V21A
B16: hisI I22W (protein)
chain: B1 chain with D19M, I22W
B17: hisI M19P (protein)
chain: B1 chain with D19P
B18: argH W335Q (protein)
chain: MALWGGRFTQAADQRFKQFNDSLRFDYRLAEQDIVGSVAWSKALVTVGVLTAEEQAQLEEALNVLLEDVRARPQQILESDAEDIHSWVEGKLIDKVGQLGKKLHTGRSRNDQVATDLKLWCKDTVSELLTANRQLQSALVETAQNNQDAVMPGYTHLQRAQPVTFAHWCLAYVEMLARDESRLQDALKRLDVSPLGCGALAGTAYEIDREQLAGWLGFASATRNSLDSVSDRDHVLELLSAAAIGMVHLSRFAEDLIFFNTGEAGFVELSDRVTSGSSLMPQKKNPDALELIRGKCGRVQGALTGMMMTLKGLPLAYNKDMQEDKEGLFDALDTQLDCLHMAALVLDGIQVKRPRCQEAAQQGYANATELADYLVAKGVPFREAHHIVGEAVVEAIRQGKPLEDLPLSELQKFSQVIDEDVYPILSLQSCLDKRAAKGGVSPQQVAQAIAFAQARLG

Molecular target: Escherichia coli (laboratory strain)
Assay: barcode share on antibiotic plates over drug-free plates; higher = less susceptible
Protocol: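 A pool of E. coli strains, each edited to carry one amino-acid change in an essential protein, was grown for 48 h on minimal glucose agar with or without antibiotic; strain barcodes were sequenced; mean of two replicates.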

[1] = antibiotic: carbenicillin, 2× MIC (3.1 µg/mL)
[2] = antibiotic: gentamicin, 2× MIC (MIC 0.45 µg/mL)

Row | Protein | fold change of barcode share [1] | fold change of barcode share [2]
1 | B1 | 0.967 ± 0.1 | 0.0908 ± 0.095
2 | B2 | 0.787 ± 0.071 | 0.0109 ± 0.012
3 | B3 | 1.09 ± 0.35 | 0.0124 ± 0.0015
4 | B4 | 0.474 ± 0.0099 | 0.00904 ± 0.0072
5 | B5 | 2.15 ± 0.74 | 0.0155 ± 0.0058
6 | B6 | 1.4 ± 0.33 | 
7 | B7 | 1.01 ± 0.12 | 0.0284 ± 0.02
8 | B8 | 0.393 ± 0.0099 | 0.014 ± 0.0047
9 | B9 | 0.424 ± 0.098 | < 0.0047
10 | B10 | 0.71 ± 0.17 | < 0.00718
11 | B11 | 0.656 ± 0.22 | 0.0147 ± 0.0047
12 | B12 | 0.487 ± 0.12 | 0.0178 ± 0.011
13 | B13 | 0.4888 ± 0.0027 | 0.0496 ± 0.047
14 | B14 | 0.718 ± 0.19 | < 0.00405
15 | B15 | 2.89 ± 1.5 | < 0.00404
16 | B16 | 0.656 ± 0.05 | 0.0176 ± 0.018
17 | B17 | 0.733 ± 0.044 | < 0.00552
18 | B18 | 0.565 ± 0.05 | 0.181 ± 0.25
